Reference: patent publication US20190382503A1 (published 2019)

T1: recombinant human 5T4 extracellular domain (human, UniProt Q13641 32-355)
T1 construct: The entry starts at Met 1; also called Hu 5T4; 5T4 ECD
T1 sequence: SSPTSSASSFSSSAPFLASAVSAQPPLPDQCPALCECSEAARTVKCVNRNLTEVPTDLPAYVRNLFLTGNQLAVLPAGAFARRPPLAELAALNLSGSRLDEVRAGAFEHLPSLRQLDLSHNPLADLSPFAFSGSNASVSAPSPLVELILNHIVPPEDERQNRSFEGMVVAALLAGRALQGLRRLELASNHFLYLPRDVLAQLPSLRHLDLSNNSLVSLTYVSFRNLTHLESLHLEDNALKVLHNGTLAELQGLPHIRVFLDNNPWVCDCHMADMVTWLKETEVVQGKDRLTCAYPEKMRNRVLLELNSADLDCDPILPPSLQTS

B1: ALG.APV-006 (bispecific antibody)
chain: EVQLLESGGGLVQPGGSLRLSCAASGFTFSYGSMYWVRQAPGKGLEWVSSISSGSGSTYYADSVKGRFTISRDNSKNTLYLQMNSLRAEDTAVYYCARSSYYGSYYSIDYWGQGTLVTVSSGGGGSGGGGSGGGGSGGGGSDIQMTQSPSSLSASVGDRVTITCRASQSISSYLNWYQQKPGKAPKLLIYAASSLQSGVPSRFSGSGSGTDFTLTISSLQPEDFATYYCQQYYDNLPTFGQGTKLEIKSSSEPKSSDKTHTCPPCPAPEAAGAPSVFLFPPKPKDTLMISRTPEVTCVVVDVSHEDPEVKFNWYVDGVEVHNAKTKPREEQYNSTYRVVSVLTVLHQDWLNGKEYKCAVSNKALPAPIEKTISKAKGQPREPQVYTLPPSRDELTKNQVSLTCLVKGFYPSDIAVEWESNGQPENNYKTTPPVLDSDGSFFLYSKLTVDKSRWQQGNVFSCSVMHEALHNHYTQKSLSLSPGSGGGGSGGGGSGGGGSPS[letters of about 100 residues left out]YYGGYYSAWMDYWGQGTLVTVSSGGGGSGGGGSGGGGSGGGGSDIQMTQSPSSLSASVGDRVTITCRASQSISSYLNWYQQKPGKAPKLLIYAASSLQSGVPSRFSGSGSGTDFTLTISSLQPEDFATYYCQQTYGYLHTFGQGTKLEIKS
notes: scFv-Fc-scFv (ADAPTIR) homodimer: 1618 anti-4-1BB scFv - Fc - 1210 anti-5T4 scFv; also called 1618 VHVL -Fc-1210 VHVL; parent construct
B2: ALG.APV-179 (bispecific antibody)
chain: EVQLLESGGGLVQPGGSLRLSCAASGFTFSHGSMYWVRQAPGKGLEWVSSISSGSGSTYYADSVKGRFTISHDNSKNTLYLQMNSLRAEDTAVYYCARSSYYGSYYSIDYWGQGTLVTVSSGGGGSGGGGSGGGGSGGGGSDIQMTQSPSSLSASVGDRVTITCRASQSISSYLNWYQQKPGKAPKLLIYAASSLQSGVPSRFSGSGSGTDFTLTISSLQPEDFATYYCQQYYDNLPTFGQGTKLEIKSSEPKSSDKTHTCPPCPAPEAAGAPSVFLFPPKPKDTLMISRTPEVTCVVVDVSHEDPEVKFNWYVDGVEVHNAKTKPREEQYNSTYRVVSVLTVLHQDWLNGKEYKCAVSNKALPAPIEKTISKAKGQPREPQVYTLPPSRDELTKNQVSLTCLVKGFYPSDIAVEWESNGQPENNYKTTPPVLDSDGSFFLYSKLTVDKSRWQQGNVFSCSVMHEALHNHYTQKSLSLSPGSGGGGSGGGGSGGGGSPS[letters of about 100 residues left out]YYGGYYSAWMDYWGQGTLVTVSSGGGGSGGGGSGGGGSGGGGSDIQMTQSPSSLSASVGDRVTITCRASQSISSFLNWYQQKPGKAPKLLIYAASSLQSGVPSRFSGSGSGTDFTLTISSLQPEDSATYYCQQTYGYLHTFGQGTKLEIKR
notes: scFv-Fc-scFv (ADAPTIR) homodimer
B3: ALG.APV-178 (bispecific antibody)
chain: EVQLLESGGGLVQPGGSLRLSCAASGFTFSHGSMYWVRQAPGKGLEWVSSISSGSGSTYYADSVKGRFTISHDNSKNTLYLQMNSLRAEDTAVYYCARSSYYGSYYSIDYWGQGTLVTVSSGGGGSGGGGSGGGGSGGGGSDIQMTQSPSSLSASVGDRVTITCRASQSISSYLNWYQQKPGKAPKLLIYAASSLQSGVPSRFSGSGSGTDFTLTISSLQPEDFATYYCQQYYDNLPTFGQGTKLEIKSSEPKSSDKTHTCPPCPAPEAAGAPSVFLFPPKPKDTLMISRTPEVTCVVVDVSHEDPEVKFNWYVDGVEVHNAKTKPREEQYNSTYRVVSVLTVLHQDWLNGKEYKCAVSNKALPAPIEKTISKAKGQPREPQVYTLPPSRDELTKNQVSLTCLVKGFYPSDIAVEWESNGQPENNYKTTPPVLDSDGSFFLYSKLTVDKSRWQQGNVFSCSVMHEALHNHYTQKSLSLSPGSGGGGSGGGGSGGGGSPS[letters of about 100 residues left out]YYGGYYSAWMDYWGQGTLVTVSSGGGGSGGGGSGGGGSGGGGSDIQMTQSPSSLSASVGDRVTITCRASQSISSYLNWYQQKPGKAPKLLIYAASSLQSGVPSRFSGSGSGTDFTLTISSLQPEDSATYYCQQTYGYLHTFGQGTKLEIKR
notes: as for B2
B4: ALG.APV-209 (bispecific antibody)
chain: EVQLLESGGGLVQPGGSLRLSCAASGFTFSHGSMYWVRQAPGKGLEWVSSISSGSGSTYYADSVKGRFTISHDNSKNTLYLQMNSLRAEDTAVYYCARSSYYGSYYSIDYWGQGTLVTVSSGGGGSGGGGSGGGGSGGGGSDIQMTQSPSSLSASVGDRVTITCRASQSISSYLNWYQQKPGKAPKLLIYAASSLQSGVPSRFSGSGSGTDFTLTISSLQPEDFATYYCQQYYDNLPTFGQGTKLEIKEPKSSDKTHTCPPCPAPEAAGAPSVFLFPPKPKDTLMISRTPEVTCVVVDVSHEDPEVKFNWYVDGVEVHNAKTKPREEQYNSTYRVVSVLTVLHQDWLNGKEYKCAVSNKALPAPIEKTISKAKGQPREPQVYTLPPSRDELTKNQVSLTCLVKGFYPSDIAVEWESNGQPENNYKTTPPVLDSDGSFFLYSKLTVDKSRWQQGNVFSCSVMHEALHNHYTQKSLSLSPGSGGGGSGGGGSGGGGSPS[letters of about 100 residues left out]YYGGYYSAWMDYWGQGTLVTVSSGGGGSGGGGSGGGGSGGGGSDIQMTQSPSSLSASVGDRVTITCRASQSISSFLNWYQQKPGKAPKLLIYAASSLQSGVPSRFSGSGSGTDFTLTISSLQPEDSATYYCQQTYGYLHTFGQGTKLEIKR
notes: scFv-Fc-scFv (ADAPTIR) homodimer, no stabilizing disulfide in the 1210 scFv; also called ALG.APV-222

Tests used:
[1] = target: T1, recombinant human 5T4 extracellular …; test: SPR, Biacore T-200, recombinant extracellular domain
Method: In addition to the stability assessments that were performed, the binding affinity of ALG.APV-006 and the phage derived variants were determined by Surface Plasmon Resonance (SPR) using a Biacore T-200, using the recombinant extracellular domains of human 5T4 and human CD137.

[2] = target: T2, recombinant human CD137 extracellular domain (human, UniProt Q07011 24-186); test: SPR, Biacore T200, bispecific captured by anti-human IgG, monomeric ECD injected, 1:1 model
T2 construct: The entry starts at Met 1; also called Hu CD137; 4-1BB ECD
Method: (§1) Goat anti-human IgG F(ab′)2 fragment (Jackson ImmunoResearch) at 20 μg/mL in 10 mM sodium acetate (pH 4.5) was immobilized at a density of 2000 response units (RU) onto the flow cell of a CM5 research-grade sensor chip (GE) by standard amine coupling chemistry. Each bispecific variant at 200 nM in HBS-EP+ buffer was captured in the flow cell with the immobilized anti-human IgG at a flow rate of 50 μL/min for 60 sec to reach ˜500 RU response, leaving one flow cell surface unmodified as the reference. Following a 30 sec stabilization period, four different concentrations of each ECD (0, 20, 60, and 180 nM) were injected at 50 μL/min for either 120 sec followed by a 240 sec dissociation period (for 5T4) or 90 sec followed by a 180 sec dissociation period (for 4-1BB). Regeneration was achieved by duplicate injections of 10 mM glycine (pH 1.5) at a flow rate of 50 μL/min for 30 sec followed by HBS-EP+ buffer stabilization for 1 min.
(§2) Sensorgrams obtained from kinetic SPR measurements were analyzed by the double subtraction method. The signal from the reference flow cell was subtracted from the analyte binding response obtained from flow cells with immobilized or captured ligands. Buffer reference responses were then averaged from multiple injections. The averaged buffer reference responses were then subtracted from analyte binding responses, and the final double-referenced data were analyzed with Biacore T200 Evaluation software (2.0, GE), globally fitting data to derive kinetic parameters. All sensorgrams were fitted using a simple one-to-one binding model.

[3] = target: T1, recombinant human 5T4 extracellular …; test: as above
Method: as §1, §2

Binder | Kd [1] [nM] | Kd [2] [nM] | koff [2] [s⁻¹] | kon [2] [M⁻¹ s⁻¹] | Kd [3] [nM] | koff [3] [s⁻¹] | kon [3] [M⁻¹ s⁻¹]
B1 | 149 | 210 | 0.059 | 280000 | 109 | 0.0026 | 24000
B2 | – | 71 | 0.028 | 390000 | 29 | 0.00062 | 22000
B3 | – | 70 | 0.027 | 390000 | 106 | 0.0025 | 23000
B4 | – | 59 | 0.033 | 560000 | 66 | 0.00094 | 14000
